The values below come from paper PMC9911399, “Two distinct binding modes provide the RNA-binding protein RbFox with extraordinary sequence specificity”.

First the molecules themselves.
B1: AUUACAG (DNA:RNA)
RNA: GGGAGACCGGAAUUCAGAUUGUCCAUUACAGUUAAAUCCCGUCGUAGCCACCA
DNA 1: CAATCTGAATTCCGGTCTCCC
DNA 2: TGGTGGCTACGACGGGATT
B2: CCCUUAC (DNA:RNA)
RNA: B1 RNA with A25C, U26C, U27C, A28U, C29U, G31C
DNA 1: CAATCTGAATTCCGGTCTCCC
DNA 2: TGGTGGCTACGACGGGATT
B3: CCCAUGA (DNA:RNA)
RNA: B1 RNA with A25C, U26C, U27C, C29U, A30G, G31A
DNA 1: CAATCTGAATTCCGGTCTCCC
DNA 2: TGGTGGCTACGACGGGATT
B4: CUGCCGC (DNA:RNA)
RNA: B1 RNA with A25C, U27G, A28C, A30G, G31C
DNA 1: CAATCTGAATTCCGGTCTCCC
DNA 2: TGGTGGCTACGACGGGATT
B5: UCAAUUG (DNA:RNA)
RNA: B1 RNA with A25U, U26C, U27A, C29U, A30U
DNA 1: CAATCTGAATTCCGGTCTCCC
DNA 2: TGGTGGCTACGACGGGATT
B6: ACCAAAG (DNA:RNA)
RNA: B1 RNA with U26C, U27C, C29A
DNA 1: CAATCTGAATTCCGGTCTCCC
DNA 2: TGGTGGCTACGACGGGATT
B7: GUUUACG (DNA:RNA)
RNA: B1 RNA with A25G, A28U, C29A, A30C
DNA 1: CAATCTGAATTCCGGTCTCCC
DNA 2: TGGTGGCTACGACGGGATT
B8: UACUAGG (DNA:RNA)
RNA: B1 RNA with A25U, U26A, U27C, A28U, C29A, A30G
DNA 1: CAATCTGAATTCCGGTCTCCC
DNA 2: TGGTGGCTACGACGGGATT
B9: CCAGCCU (DNA:RNA)
RNA: B1 RNA with A25C, U26C, U27A, A28G, A30C, G31U
DNA 1: CAATCTGAATTCCGGTCTCCC
DNA 2: TGGTGGCTACGACGGGATT
B10: AGAGUAC (DNA:RNA)
RNA: B1 RNA with U26G, U27A, A28G, C29U, G31C
DNA 1: CAATCTGAATTCCGGTCTCCC
DNA 2: TGGTGGCTACGACGGGATT
B11: UACUUAG (DNA:RNA)
RNA: B1 RNA with A25U, U26A, U27C, A28U, C29U
DNA 1: CAATCTGAATTCCGGTCTCCC
DNA 2: TGGTGGCTACGACGGGATT
B12: GAUGCUG (DNA:RNA)
RNA: B1 RNA with A25G, U26A, A28G, A30U
DNA 1: CAATCTGAATTCCGGTCTCCC
DNA 2: TGGTGGCTACGACGGGATT
B13: UUGAUCA (DNA:RNA)
RNA: B1 RNA with A25U, U27G, C29U, A30C, G31A
DNA 1: CAATCTGAATTCCGGTCTCCC
DNA 2: TGGTGGCTACGACGGGATT
B14: GUAUACC (DNA:RNA)
RNA: B1 RNA with A25G, U27A, A28U, C29A, A30C, G31C
DNA 1: CAATCTGAATTCCGGTCTCCC
DNA 2: TGGTGGCTACGACGGGATT
B15: AAUUUAA (DNA:RNA)
RNA: B1 RNA with U26A, A28U, C29U, G31A
DNA 1: CAATCTGAATTCCGGTCTCCC
DNA 2: TGGTGGCTACGACGGGATT
B16: AGAGCCU (DNA:RNA)
RNA: B1 RNA with U26G, U27A, A28G, A30C, G31U
DNA 1: CAATCTGAATTCCGGTCTCCC
DNA 2: TGGTGGCTACGACGGGATT
B17: CUUCGUU (DNA:RNA)
RNA: B1 RNA with A25C, A28C, C29G, A30U, G31U
DNA 1: CAATCTGAATTCCGGTCTCCC
DNA 2: TGGTGGCTACGACGGGATT
B18: AUUUGGU (DNA:RNA)
RNA: B1 RNA with A28U, C29G, A30G, G31U
DNA 1: CAATCTGAATTCCGGTCTCCC
DNA 2: TGGTGGCTACGACGGGATT
B19: CUUGGAA (DNA:RNA)
RNA: B1 RNA with A25C, A28G, C29G, G31A
DNA 1: CAATCTGAATTCCGGTCTCCC
DNA 2: TGGTGGCTACGACGGGATT
B20: CUUUGUU (DNA:RNA)
RNA: B1 RNA with A25C, A28U, C29G, A30U, G31U
DNA 1: CAATCTGAATTCCGGTCTCCC
DNA 2: TGGTGGCTACGACGGGATT
B21: GCGCAGG (DNA:RNA)
RNA: B1 RNA with A25G, U26C, U27G, A28C, C29A, A30G
DNA 1: CAATCTGAATTCCGGTCTCCC
DNA 2: TGGTGGCTACGACGGGATT
B22: CCCCAUU (DNA:RNA)
RNA: GGGAGACCGGAAUUCAGAUUGUCCCCCCAUUUUAAAUCCCGUCGUAGCCACCA
DNA 1: CAATCTGAATTCCGGTCTCCC
DNA 2: TGGTGGCTACGACGGGATT
B23: AUUUGAC (DNA:RNA)
RNA: B1 RNA with A28U, C29G, G31C
DNA 1: CAATCTGAATTCCGGTCTCCC
DNA 2: TGGTGGCTACGACGGGATT
B24: CUAUAUU (DNA:RNA)
RNA: B22 RNA with C26U, C27A, C28U
DNA 1: CAATCTGAATTCCGGTCTCCC
DNA 2: TGGTGGCTACGACGGGATT
B25: GCAACUA (DNA:RNA)
RNA: B1 RNA with A25G, U26C, U27A, A30U, G31A
DNA 1: CAATCTGAATTCCGGTCTCCC
DNA 2: TGGTGGCTACGACGGGATT
B26: UUGACCU (DNA:RNA)
RNA: B1 RNA with A25U, U27G, A30C, G31U
DNA 1: CAATCTGAATTCCGGTCTCCC
DNA 2: TGGTGGCTACGACGGGATT
B27: ACAACGG (DNA:RNA)
RNA: B1 RNA with U26C, U27A, A30G
DNA 1: CAATCTGAATTCCGGTCTCCC
DNA 2: TGGTGGCTACGACGGGATT
B28: AAUGGAG (DNA:RNA)
RNA: B1 RNA with U26A, A28G, C29G
DNA 1: CAATCTGAATTCCGGTCTCCC
DNA 2: TGGTGGCTACGACGGGATT
B29: GUGGGAG (DNA:RNA)
RNA: B1 RNA with A25G, U27G, A28G, C29G
DNA 1: CAATCTGAATTCCGGTCTCCC
DNA 2: TGGTGGCTACGACGGGATT
B30: UGCUCCA (DNA:RNA)
RNA: B1 RNA with A25U, U26G, U27C, A28U, A30C, G31A
DNA 1: CAATCTGAATTCCGGTCTCCC
DNA 2: TGGTGGCTACGACGGGATT
B31: GCCUGGU (DNA:RNA)
RNA: B22 RNA with C25G, C28U, A29G, U30G
DNA 1: CAATCTGAATTCCGGTCTCCC
DNA 2: TGGTGGCTACGACGGGATT

Changes are numbered by the printed parent chain; changes in the protein carry UniProt numbers. Some of the results follow.

This assay addresses T1, RBFOX1 RRM RbFoxmut (Fox-RRM*) (Homo sapiens, UniProt Q9NWB1 109-208, R118D;E147R;N151S;E152T).
T1 sequence: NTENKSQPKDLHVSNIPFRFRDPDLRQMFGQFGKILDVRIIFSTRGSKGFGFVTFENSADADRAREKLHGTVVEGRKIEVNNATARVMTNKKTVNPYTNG
As to the kind of experiment: EMSA; HiTS-Eq, 1 nM pool, 10 min; buffer printed only for the single-RNA assays: 10 mM Tris pH 7.5, 150 mM NaCl, 3.4 mM EDTA, 0.001% NP-40, 30 C. Particulars: tags: His6 N-terminal (pET28a); label: 5' 32P. An outline of the steps:
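Purified wild-type or mutant RbFox RRM at increasing concentrations was equilibrated with 1 nM of 5′-radiolabelled RNA carrying 7 randomized nucleotides for 10 min in 50 µL. Unbound RNA was separated by 8% native PAGE and sequenced. Relative association constants came from read-count changes of each RNA species compared with the control reaction, normalised to the cognate motif.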
Turning to B1, the binding signal is 0.0954 KA relative to UGCAUGU. For the molecule B2, the binding signal is 0.107 KA relative to UGCAUGU. Regarding B3, the binding signal was 0.0942 KA relative to UGCAUGU. To B4 belongs 0.116 KA relative to UGCAUGU; to B5, 0.0766 KA relative to UGCAUGU.

Turning to B6, the binding signal was 0.122 KA relative to UGCAUGU. Then B7, with 0.123 KA relative to UGCAUGU; and B8, with 0.0701 KA relative to UGCAUGU.

Take B9: the binding signal was 0.0677 KA relative to UGCAUGU. To B10 belongs 0.101 KA relative to UGCAUGU. Then B11, with 0.0858 KA relative to UGCAUGU; and B12, with 0.1 KA relative to UGCAUGU.

B13: the binding signal was 0.0891 KA relative to UGCAUGU. On to B14, for which the binding signal is 0.0915 KA relative to UGCAUGU. To B15 belongs 0.0846 KA relative to UGCAUGU. Then B16, with 0.0937 KA relative to UGCAUGU; and B17, with 0.131 KA relative to UGCAUGU.

Regarding B18, the binding signal was 0.129 KA relative to UGCAUGU. Turning to B19, the binding signal was 0.117 KA relative to UGCAUGU. As for B20, the binding signal was 0.117 KA relative to UGCAUGU.

With B21, the binding signal was 0.106 KA relative to UGCAUGU.

Regarding B22, the binding signal was 0.0919 KA relative to UGCAUGU. Take B23: the binding signal was 0.119 KA relative to UGCAUGU. On to B24, for which the binding signal is 0.076 KA relative to UGCAUGU. To B25 belongs 0.0869 KA relative to UGCAUGU; to B26, 0.0666 KA relative to UGCAUGU. Regarding B27, the binding signal was 0.0675 KA relative to UGCAUGU. Then B28, with 0.114 KA relative to UGCAUGU. B29: the binding signal is 0.114 KA relative to UGCAUGU. For B30, the binding signal is 0.0911 KA relative to UGCAUGU. Regarding B31, the binding signal was 0.211 KA relative to UGCAUGU.
